Laboratory results published in US20230416313A1 (published 2023).
Residue numbers refer to the chain shown, from its start.

T1: recombinant human complement factor H (CFH), isolated from moss (human, UniProt P08603 19-1231)
T1 chain: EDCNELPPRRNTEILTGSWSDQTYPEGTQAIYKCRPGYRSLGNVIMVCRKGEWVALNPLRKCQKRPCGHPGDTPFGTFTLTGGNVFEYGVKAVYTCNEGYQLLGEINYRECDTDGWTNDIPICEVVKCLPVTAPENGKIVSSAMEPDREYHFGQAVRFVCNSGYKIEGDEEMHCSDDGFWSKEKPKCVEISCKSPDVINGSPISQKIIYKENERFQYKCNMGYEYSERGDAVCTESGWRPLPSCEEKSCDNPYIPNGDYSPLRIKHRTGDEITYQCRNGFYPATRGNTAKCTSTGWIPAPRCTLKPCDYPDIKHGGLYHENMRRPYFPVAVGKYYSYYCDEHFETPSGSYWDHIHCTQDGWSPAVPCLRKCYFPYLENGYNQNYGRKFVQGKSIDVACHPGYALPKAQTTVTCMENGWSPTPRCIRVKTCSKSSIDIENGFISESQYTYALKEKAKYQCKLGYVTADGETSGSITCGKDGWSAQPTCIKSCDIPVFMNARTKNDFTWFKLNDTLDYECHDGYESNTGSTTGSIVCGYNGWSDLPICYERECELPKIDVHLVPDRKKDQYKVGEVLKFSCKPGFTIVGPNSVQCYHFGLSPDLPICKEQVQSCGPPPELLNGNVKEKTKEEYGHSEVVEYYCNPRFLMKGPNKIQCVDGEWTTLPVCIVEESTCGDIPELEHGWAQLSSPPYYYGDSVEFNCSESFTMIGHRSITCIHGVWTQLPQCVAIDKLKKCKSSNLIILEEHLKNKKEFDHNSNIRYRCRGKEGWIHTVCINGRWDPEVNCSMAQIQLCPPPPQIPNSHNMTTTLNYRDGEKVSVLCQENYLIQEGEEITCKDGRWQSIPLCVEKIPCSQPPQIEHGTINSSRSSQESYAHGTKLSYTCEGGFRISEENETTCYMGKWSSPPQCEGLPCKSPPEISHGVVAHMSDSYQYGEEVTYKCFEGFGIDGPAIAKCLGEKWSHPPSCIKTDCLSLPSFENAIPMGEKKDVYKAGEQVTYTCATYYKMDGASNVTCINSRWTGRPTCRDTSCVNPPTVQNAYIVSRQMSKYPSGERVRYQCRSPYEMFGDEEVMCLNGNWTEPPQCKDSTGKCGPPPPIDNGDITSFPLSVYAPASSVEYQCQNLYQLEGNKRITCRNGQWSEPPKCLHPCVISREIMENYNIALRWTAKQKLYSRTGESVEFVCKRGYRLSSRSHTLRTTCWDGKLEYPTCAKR

B1: CFH binding protein of SEQ ID NO: 11 (CID 209429) (designed binder)
chain: IAAKFDEAQQRAFYWILHLRNLTEEQRNAFIQSLRDDPSVSKEVLGEAYKLNKSQAPKIAAKFDEAQTAAFWEIWHLPNLTEEQRVAFIHSLQDDPSVSLEVLGEAQKLNDSQAPK
B2: SEQ ID NO 18 (designed binder)
chain: IAAKFDEAQWAAFYEIVHLPNLTEEQREAFIQSLWDDPSVSLEVLGEAQKLNDSQAPKIAAKFDEAQQAAFYEILHLPNLTERQRNWFIQQLRDDPSVSLTVLGRAQRLNDSQAPK
B3: CFH binding protein of SEQ ID NO: 10 (CID 209372) (designed binder)
chain: B2 chain with R83Q, W87Y, Q91R, T101A, R105H, R108K
B4: CFH binding protein of SEQ ID NO: 21 (CID 209920) (designed binder)
chain: B1 chain with R11E, R20E, K42E, Y49L, K53V, T68Y, W75Q, V86H, H90W, Q93L
B5: SEQ ID NO 15 (designed binder)
chain: IAAKFDEAQEAAFWEIQHLPNLTEEQRWAFIWSLADDPSVSLEVLGEAQKLNDSQAPKIAAKFDEAQQAAFYEILHLPNLTEWQRNYFIQKLRDDPSVSLWVLGQAQILNDSQAPK
B6: SEQ ID NO 16 (designed binder)
chain: B2 chain with Q91R, T101W
B7: affinity ligand 209621 (SEQ ID NO: 13) (designed binder)
chain: B5 chain with E10T, Q17E
B8: CFH binding protein of SEQ ID NO: 22 (CID 209921) (designed binder)
chain: IAAKFDEAQQEWAFYHILHLYNLTEEQRNAFIQSLRDDPSVSQEVLGEAWKLNQSQAPKIAAKFDEAQYAAFWEIWHLPNLTEEQRWAFILSLHDDPSVSLEVLGEAQKLNDSQAPK
B9: CFH binding protein of SEQ ID NO: 19 (CID 209860) (designed binder)
chain: B2 chain with Y14E, V17A, Q91R, T101W
B10: SEQ ID NO 17 (designed binder)
chain: B5 chain with W83H, Y87L, K91R
B11: CFH binding protein of SEQ ID NO: 12 (CID 209434) (designed binder)
chain: B1 chain with K53V, T68V, P96Q
B12: 209354 (protein)
chain: B2 chain with R83H, W87H, Q91K, T101Q, R105H
B13: SEQ ID NO 14 (designed binder)
chain: B5 chain with W83Y, Y87L, K91R
B14: SEQ ID NO 7 (designed binder)
chain: B2 chain with S39G, R83A, W87H, Q91R, T101V, R105Q, R108K
B15: 208854 (protein)
chain: B1 chain with R11K, K42T, Y49L, K53Q, T68W, W72Y, W75V, V86E, H90Q, Q93W
B16: 209264 (protein)
chain: IAAKFDRIQSIADEVILILPNLTEEQRNAFRQSLSDDPSVSEEVLYEALYLNYSQAPK

Molecular target: T1, recombinant human complement factor H …
Test: BLI; steady state
In the case of B1, the Kd is reported as 460 nM. B2 showed a Kd of 238 nM. B3 was tested, and the Kd was 750 nM. B4 was tested, and the Kd was 81 nM. B5 was tested, and the Kd was 26 nM. Work on B6 yielded a Kd of 60 nM. Binder B7 has a Kd of 25 nM. For B8, the Kd was 39 nM. With B9 the Kd was 225 nM. Binder B10 has a Kd of 31 nM. Work on B11 yielded a Kd of 900 nM. Binder B12 has a Kd of 740 nM. Work on B13 yielded a Kd of 31 nM.

Molecular target: T1, recombinant human complement factor H …
Test: SPR; kinetic
Binder B14 has a Kd of 286 nM. B15 was tested, and the Kd was 97 nM.

Molecular target: T1, recombinant human complement factor H …
Test: SPR; steady state
For B16, the Kd was 114 nM.
